About 550 (1.1%) of roughly 48,000 compounds were called active. Inconclusive results (about 4%) are left out. No stated cut-off is given here; in the data, active means potency below about 15 µM; inconclusive means mostly about 16 µM to 33 µM; inactive means weaker than that. The list shows a part of the results.
Potency means the concentration at half of the fitted maximal effect.

This test addresses Lysosomal acid glucosylceramidase (Homo sapiens) (UniProt P04062). As to the kind of experiment: Glucocerebrosidase.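 Further: the screen sought inhibitors.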 The settings on record: purified enzyme, resorufin glucoside fluorescence (screen aimed at inhibitors), 20 min. In outline: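 Compounds titrated against 0.2 nM normal enzyme, 30 uM resorufin beta-D-glucopyranoside substrate, citrate/phosphate buffer with taurocholate and tween-20, pH 5.9. Reaction ran 20 min at room temperature; fluorescence (Ex 548/Em 600) gave AC50.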
Sequence of UniProt P04062 (P04062 whole entry, looked up): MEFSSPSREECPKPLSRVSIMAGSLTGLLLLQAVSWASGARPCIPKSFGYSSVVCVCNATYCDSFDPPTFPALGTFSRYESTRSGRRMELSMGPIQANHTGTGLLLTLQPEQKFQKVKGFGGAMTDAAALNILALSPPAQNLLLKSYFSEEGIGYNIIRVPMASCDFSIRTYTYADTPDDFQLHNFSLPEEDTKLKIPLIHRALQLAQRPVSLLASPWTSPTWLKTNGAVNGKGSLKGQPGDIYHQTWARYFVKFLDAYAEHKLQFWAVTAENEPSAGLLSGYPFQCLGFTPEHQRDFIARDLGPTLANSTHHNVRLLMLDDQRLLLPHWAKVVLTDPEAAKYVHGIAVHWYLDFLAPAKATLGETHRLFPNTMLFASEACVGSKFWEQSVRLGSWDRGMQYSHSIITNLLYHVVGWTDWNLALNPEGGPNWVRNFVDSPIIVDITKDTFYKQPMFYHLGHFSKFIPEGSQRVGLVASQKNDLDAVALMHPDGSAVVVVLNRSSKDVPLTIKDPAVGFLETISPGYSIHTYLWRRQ
On to `Cc1cc2ccccc2c(=O)n1CC(=O)NCC1COc2ccccc2O1` (centres undefined), for which the Potency is inactive: > 76.9 µM.

On to `Cc1[nH]nc2c1C(c1ccc(OC(=O)c3ccco3)cc1)C(C#N)=C(N)O2` (centres undefined), for which the Potency was inactive: > 76.9 µM.

In the case of `CCCCCCn1c(N2CCC(C(N)=O)CC2)nc2c1c(=O)[nH]c(=O)n2C`, the Potency was inactive: > 76.9 µM.

As to `Cc1ccccc1-n1c(SCC(=O)N2CCCC2)nnc1-c1ccccn1`, the Potency was inactive: > 76.9 µM.

Consider `COC(=O)C1(c2ccccc2)NC(c2cccs2)C2C(=O)N(C)C(=O)C21` (centres undefined), for which the Potency was inactive: > 76.9 µM.

Consider `Cc1cc(=O)[nH]c(SCC(=O)Nc2ccc(S(=O)(=O)N3CCCCC3)cc2)n1`, for which the Potency was inactive: > 76.9 µM.

On to `Cc1c(N=C2SCC(=O)N2c2c(C)n(C)n(-c3ccccc3)c2=O)c(=O)n(-c2ccccc2)n1C`, for which the Potency is inactive: > 76.9 µM.

Regarding `COc1ccc(NC(=O)CSc2ccccn2)cc1OC`, the Potency was inactive: > 76.9 µM.

Consider `CCOC(=O)Cc1cn2c(=O)cc(CSCC(=O)Nc3ccc(C)c(C)c3)nc2s1`, for which the Potency is inactive: > 76.9 µM.

For the molecule `CCOC(=O)N1CCC(NC(=O)c2ccc(OC)c(CN3CC(=O)N4CCCC4C3=O)c2)CC1` (centres undefined), the Potency is inactive: > 76.9 µM.

As to `CCOc1ccccc1-n1c(SCC(=O)NC2CCCC2)nnc1-c1ccoc1C`, the Potency was inactive: > 76.9 µM.

Take `COc1ccc(-c2nnc(SCC(=O)c3[nH]c(C)c(C(C)=O)c3C)o2)cc1`: the Potency is inactive: > 76.9 µM.

Turning to `CN1CCN(C(=O)c2ccccc2NC(=O)CCN2C(=O)c3ccccc3C2=O)CC1`, the Potency is inactive: > 76.9 µM.

Consider `COc1cccc(NS(=O)(=O)c2ccc(S(=O)(=O)N3CCOCC3)cc2)c1`, for which the Potency is inactive: > 76.9 µM.

In the case of `O=C(NCCOc1nc(N2CCCCC2)nc(N2CCOCC2)n1)Nc1ccccc1`, the Potency was inactive: > 76.9 µM.

For the molecule `O=C(Cc1ccccc1)NCCCN1CCN(CCCNC(=O)Cc2ccccc2)CC1`, the Potency was inactive: > 76.9 µM.

Take `Nc1cc(CN2C(=O)c3ccccc3C2=O)cc(Cl)c1O`: the Potency is inactive: > 76.9 µM.

`COc1ccc(N2CCN(CCCNC(=O)CN3CCN(Cc4ccccc4C)C3=O)CC2)cc1`: the Potency is inactive: > 76.9 µM.

For `COc1ccc(-c2noc(CCC(=O)N3CCN(c4cc(C)ccc4C)CC3)n2)cc1`, the Potency result was “inactive”.

Regarding `COc1cccc(-c2cn3nc4c(nc3n2)CCCC4)c1`, the Potency is inactive: > 76.9 µM.

As to `COC(=O)c1ccccc1NC(=O)NCc1cccnc1`, the Potency was inactive: > 76.9 µM.

Take `NC(=O)COC(=O)c1ccc(Oc2ccccc2)cc1`: the Potency was inactive: > 76.9 µM.

On to `Cc1sc2c(c1C)CN(Cc1ccco1)CN2C(=O)c1ccccc1`, for which the Potency was inactive: > 76.9 µM.

As for `Cn1c(=O)cc(OCCCC(=O)NCCCN2CCN(Cc3ccccc3)CC2)c2ccccc21`, the Potency was inactive: > 76.9 µM.

Consider `CCOC(=O)c1cc2occc2n1CC(=O)NC1CCC(C)CC1` (centres undefined), for which the Potency was inactive: > 76.9 µM.

Take `Cc1ccc(O)c(NC(=O)CCCC(=O)O)c1`: the Potency is inactive: > 76.9 µM.

Take `CC(NC(=O)CC1Nc2ccccc2NC1=O)c1ccccc1` (centres undefined): the Potency is inactive: > 76.9 µM.

As for `C=CCn1c(SCC(=O)NCC2CCCO2)nc2scc(-c3ccco3)c2c1=O` (centres undefined), the Potency is inactive: > 76.9 µM.

As to `Cc1nc(CNS(=O)(=O)c2ccc3c(c2)OCCO3)cs1`, the Potency was inactive: > 76.9 µM.

`NC1=NC(=O)CC(C(=O)NCCc2ccccc2)S1` (centres undefined): the Potency is inactive: > 76.9 µM.

For the molecule `CC(C)(C)OC(=O)N1CCC(c2c(C(=O)O)cnn2-c2ccccc2Cl)CC1`, the Potency was inactive: > 76.9 µM.

For the molecule `O=C(CSc1nnc(-c2cccnc2)n1Cc1ccccc1)N1CCOCC1`, the Potency is inactive: > 76.9 µM.

For `CC(=O)Oc1ccc2oc(=O)c3c(c2c1)CCCN3C(=O)CN1CCN(c2ncccn2)CC1`, the Potency was inactive: > 76.9 µM.

As to `CC(=O)c1cccc(NC(=O)NCc2ccco2)c1`, the Potency is inactive: > 76.9 µM.

On to `COCCN(CC(=O)NCc1ccc(F)cc1)C(=O)CCC(=O)Nc1ccccn1`, for which the Potency is inactive: > 76.9 µM.

For `CCOC(=O)C1[C@H]2C(=O)N(C(C)c3ccc(OC)cc3)C[C@]23C=C[C@H]1O3` (some centres undefined), the Potency was inactive: > 76.9 µM.

For `CCc1cc2ccccc2nc1SCC(=O)Nc1cc(C)on1`, the Potency was inactive: > 76.9 µM.

Regarding `CCc1nnc(NC(=O)CSc2nnc(-c3ccccc3O)n2-c2ccc(C)cc2C)s1`, the Potency result is “inactive”.

In the case of `Cc1cc(S(=O)(=O)NC2CCCCC2)ccc1OCC(=O)NCc1ccccn1`, the Potency is inactive: > 76.9 µM.

As to `CN1CCN(/C=N/c2c(C#N)cnn2C)CC1`, the Potency was inactive: > 76.9 µM.

As for `Cc1cc(Nc2ccc3c(c2)OCCO3)n2ncnc2n1`, the Potency was inactive: > 76.9 µM.

Take `CCOC(=O)c1[nH]c(C)c(C(=O)N2CCN(c3cccc(Cl)c3)CC2)c1C`: the Potency is inactive: > 76.9 µM.

`CCCc1cc(=O)n2[nH]c(NCc3cccs3)nc2n1`: the Potency is inactive: > 76.9 µM.

In the case of `CCCCNC(=O)NCC(=O)Nc1ccc(F)c(F)c1`, the Potency is inactive: > 76.9 µM.

As to `O=C1CCCc2c1nn(-c1ccccc1)[n+]2[O-]`, the Potency is inactive: > 76.9 µM.

As for `Cc1ccc(S(=O)(=O)NCC(=O)N(CC(=O)NCC2CCCO2)C2CCCC2)cc1` (centres undefined), the Potency is inactive: > 76.9 µM.

As for `CS(=O)(=O)c1ccc(Cl)c(C(=O)O)c1`, the Potency was inactive: > 76.9 µM.

As for `O=C(Nc1cccc(S(=O)(=O)C(F)F)c1)c1ccc(Cl)c(S(=O)(=O)N2CCOCC2)c1`, the Potency was inactive: > 76.9 µM.

Regarding `CCC1(C(=O)OC)NC(c2ccco2)C2C(=O)N(c3ccccc3)C(=O)C21` (centres undefined), the Potency was inactive: > 76.9 µM.

Consider `Cc1nnc(SCC(=O)Nc2ncc3c(n2)CCCC3=O)s1`, for which the Potency is inactive: > 76.9 µM.

Consider `O=C(Cc1ccc(Br)cc1)N1CCCCCC1`, for which the Potency was inactive: > 76.9 µM.

Turning to `C=CCn1c(SCC(=O)c2cc(C)n(CC3CCCO3)c2C)nnc1-c1ccccc1` (centres undefined), the Potency is inactive: > 76.9 µM.

For `CC1(c2ccncc2)Nc2ccccc2-c2nc3ccccc3n21` (centres undefined), the Potency was inactive: > 76.9 µM.

For `COc1ccccc1NS(=O)(=O)c1ccc(OC)c(OC)c1`, the Potency was inactive: > 76.9 µM.

`COc1cc(CNCCO)ccc1OCC(=O)Nc1ccc(Br)cc1`: the Potency is inactive: > 76.9 µM.

As to `O=C(c1ccccc1)N1CCN(C(=O)N2CCCCC2)CC1`, the Potency is inactive: > 76.9 µM.

With `O=C(CN(C(=O)C1COc2ccccc2O1)c1ccccc1)NCC1CCCO1` (centres undefined), the Potency is inactive: > 76.9 µM.

For `COc1ccc(Br)cc1C(=O)O`, the Potency is inactive: > 76.9 µM.

As for `COCCSc1ccccc1C(=O)N1CCN(Cc2ccc3c(c2)OCO3)CC1`, the Potency is inactive: > 76.9 µM.

Take `O=C(c1ccccc1)N1CCN(Cc2ccccc2Br)CC1`: the Potency is inactive: > 76.9 µM.

Regarding `CC12C=CC3(O1)C(C(=O)N(c1cccnc1)C3C(=O)NC1CCCCC1)C2C(=O)Nc1ccccc1` (centres undefined), the Potency was inactive: > 76.9 µM.

For the molecule `CCn1nnnc1SCC(=O)N(C1CCCCC1)C1CCCCC1`, the Potency is inactive: > 76.9 µM.

As to `CCc1ccc(C(=O)N2CCCC2)s1`, the Potency is inactive: > 76.9 µM.

For `COCCn1nnnc1SCC(=O)c1ccccc1`, the Potency is inactive: > 76.9 µM.

For `Cc1cc2n(n1)C(c1ccco1)Nc1ccccc1-2` (centres undefined), the Potency is inactive: > 76.9 µM.

Consider `O=C(NCC1CCCO1)C(C(=O)c1ccc(F)cc1)n1ccccc1=O` (centres undefined), for which the Potency was inactive: > 76.9 µM.

For the molecule `COc1ccc(OC)c(NC(=O)CCN2CCN(Cc3ccccc3)CC2)c1`, the Potency is inactive: > 76.9 µM.

In the case of `O=C(C1CCC(Cn2c(=S)[nH]c3ccccc3c2=O)CC1)N1CCN(c2ccccc2)CC1` (centres undefined), the Potency is inactive: > 76.9 µM.

With `Cc1cc(NCc2ccc(F)cc2Cl)n2nnnc2n1`, the Potency is inactive: > 76.9 µM.

`CCOC(=O)C(Cc1cc(C(C)=O)ccc1OC(C)C)C(=O)OCC`: the Potency was inactive: > 76.9 µM.

As for `CCC(=O)Nc1ccc(Br)c(Cl)c1`, the Potency was inactive: > 76.9 µM.

Turning to `CC1C(C#N)=C(N)OC2=C1C(=O)CCC2` (centres undefined), the Potency was inactive: > 76.9 µM.

Regarding `CCOc1ccccc1N(CC(=O)NCC1CCCO1)C(=O)CCC(=O)Nc1ccccn1` (centres undefined), the Potency is inactive: > 76.9 µM.

Consider `O=C1c2ccccc2C(=O)N1c1ccc(S(=O)(=O)N2CCN(c3ccccc3)CC2)cc1`, for which the Potency was inactive: > 76.9 µM.

With `CCN1CCN(C(=O)C2c3cc(OC)c(OC)cc3C(=O)N3CCc4ccccc4C23)CC1` (centres undefined), the Potency is inactive: > 76.9 µM.

For the molecule `COc1ccc(Oc2ncnc3c2oc2ccc(Br)cc23)cc1`, the Potency was inactive: > 76.9 µM.

Regarding `COc1ccc(N2C(=O)CCC(C(=O)N(C)C3CCCCC3)C2c2ccc(OC)c(OC)c2)cc1` (centres undefined), the Potency was inactive: > 76.9 µM.

In the case of `Cc1[nH]c2ccccc2c1C(=O)CN1CCCCC1C` (centres undefined), the Potency was inactive: > 76.9 µM.

As for `CCC(C)NC(=O)c1ccc(NC(=O)C2CCCO2)cc1` (centres undefined), the Potency is inactive: > 76.9 µM.

For `COc1ccc(N(CC(=O)Nc2ccc(C)cn2)S(=O)(=O)c2c(C)noc2C)cc1`, the Potency is inactive: > 76.9 µM.

For the molecule `Cc1c(C(=O)NCC2COc3ccccc3O2)oc2ccc(S(=O)(=O)N3CCOCC3)cc12` (centres undefined), the Potency was inactive: > 76.9 µM.

For `COc1cccc(C(=O)N2CCN(S(=O)(=O)Cc3ccccc3)CC2)c1`, the Potency was inactive: > 76.9 µM.

As to `Cc1ccc(Cn2nc(C)c(NC(=O)c3noc4c3CCCCC4)c2C)cc1`, the Potency is inactive: > 76.9 µM.

As for `CCOC(=O)c1ccc(NC(=O)CCc2ccc(CC)o2)cc1`, the Potency is inactive: > 76.9 µM.

As to `CCOC(=O)N1CCN(C(=O)CN(Cc2ccccc2)S(C)(=O)=O)CC1`, the Potency was inactive: > 76.9 µM.

Regarding `Cc1c(C(=O)Nc2ccccc2N2CCOCC2)sc2nc3n(c(=O)c12)CCC3`, the Potency was inactive: > 76.9 µM.

With `CCCCOc1ccc(CSc2ncn[nH]2)cc1`, the Potency is inactive: > 76.9 µM.

For the molecule `Cc1ccc(C(=O)O)cc1S(=O)(=O)N1CCOCC1`, the Potency is inactive: > 76.9 µM.

Take `CCOC(=O)CSc1nc2c(c(=O)[nH]c(=O)n2C)n1C/C=C(/C)Cl`: the Potency was inactive: > 76.9 µM.
